Source: patent publication US8541419B2, “Isotopically enriched pyrimidin-5-yl acetic acid derivatives as CRTH2 antagonists” (Actimis Pharmaceuticals, Inc., priority 2008, dated 2013)
Several values for one entry are separate records, joined by “and”; a condition that tells them apart may be missing. Equal entries are not always repeated. Further values from the same series stand in other lists. Marks after values point to notes of the source that are not given here.

Experiment: Pharmacokinetics in male Han Wistar rats after simultaneous intravenous administration
Assay type: in vivo
Conditions: IV
Description: The pharmacokinetics and bioavailability of [4,6-bis([^2H6]dimethylamino)-2-(4-{[4-(trifluoromethyl)benzoyl]amino}benzyl)pyrimidin-5-yl]acetic acid (1) and [4,6-bisdimethylamino)-2-(4-{[4-(trifluoromethyl)benzoyl]amino}benzyl)pyrimidin-5-yl]acetic acid (“the undeuterated analog”) were compared in male Han Wistar rats after intravenous (“IV”) and oral (“PO”) administration.
The following additional acronyms and definitions are used in the study: • AUC0-∞—area under the plasma concentration time curve from time 0 to infinity • AUC0-t—area under the plasma concentration time curve from time 0 to the last quantifiable timepoint • AUMC—area under the first moment curve • CL—total plasma clearance • Cmax—maximum plasma concentration • MRT—mean residence time • PEG—polyethylene glycol • t½—elimination half-life • tmax—time of maximum plasma concentration • Vss—steady-state volume of distribution
Compound 1 (1.02 mg/kg) and the undeuterated analog (1.0 mg/kg) and were administered simultaneously as a solution in PEG 400:ethanol:water (40:10:50) both intravenously and orally (by gavage) to four male rats per dose route. The doses were equivalent on a molar basis. Blood samples were collected serially up to 48 h postdose. […] Noncompartmental pharmacokinetic parameters were calculated and the results compared statistically using paired t-tests, since the simultaneous administration of both compounds allows each rat to serve as its own control.

Q: What does the source list for CN(C)c1nc(Cc2ccc(NC(=O)c3ccc(C(F)(F)F)cc3)cc2)nc(N(C)C)c1CC(=O)O [Undeuterated Analog, reference compound]?
A: Plasma Concentrations (0.03 h, individual rats): 136,000^a ng/mL and 15,800 ng/mL and 24,600 ng/mL and 13,700 ng/mL and 271,000^a nM and 31,500 nM and 49,100 nM and 27,300 nM; Plasma Concentrations (0.03 h, mean): 47,500 ng/mL and 94800 nM; Plasma Concentrations (0.25 h, individual rats): 5,890 ng/mL and 7,660 ng/mL and 11,500 ng/mL and 3,430 ng/mL and 11,700 nM and 15,300 nM and 22,900 nM and 6,840 nM; Plasma Concentrations (0.25 h, mean): 7,120 ng/mL and 14200 nM; Plasma Concentrations (0.5 h, individual rats): 3,430 ng/mL and 4,670 ng/mL and 5,510 ng/mL and 62,900 ng/mL and 6,840 nM and 9,310 nM and 11,000 nM and 125,000 nM; Plasma Concentrations (0.5 h, mean): 19,100^a ng/mL and 38100^a nM; Plasma Concentrations (1 h, individual rats): 1,380 ng/mL and 2,290 ng/mL and 2,080 ng/mL and 681 ng/mL and 2,750 nM and 4,570 nM and 4,150 nM and 1,360 nM; Plasma Concentrations (1 h, mean): 1,610 ng/mL and 3210 nM; Plasma Concentrations (2 h, individual rats): 901 ng/mL and 741 ng/mL and 128 ng/mL and 1,800 nM and 1,480 nM and 255 nM; Plasma Concentrations (2 h, mean): 590 ng/mL and 1180 nM; Plasma Concentrations (4 h, individual rats): 175 ng/mL and 365 ng/mL and 170 ng/mL and 46.9 ng/mL and 349 nM and 728 nM and 339 nM and 93.5 nM; Plasma Concentrations (4 h, mean): 189 ng/mL and 377 nM; Plasma Concentrations (6 h, individual rats): 105 ng/mL and 253 ng/mL and 81.3 ng/mL and 24.2 ng/mL and 209 nM and 504 nM and 162 nM and 48.3 nM; Plasma Concentrations (6 h, mean): 116 ng/mL and 231 nM; Plasma Concentrations (8 h, individual rats): 128 nM and 345 nM and 176 nM and 23.9 nM; Plasma Concentrations (8 h, mean): 168 nM; Plasma Concentrations (24 h, individual rats): 23.9 nM and 9.53 nM and 6.56 nM and <1.99 nM; Plasma Concentrations (24 h, mean): 10.0 nM; Plasma Concentrations (48 h, individual rats): <1.00 ng/mL and 2.01 nM and <1.99 nM; Plasma Concentrations (48 h, mean): 0.253 ng/mL and 0.503 nM
